# According to PMC7819943, “Rice protein-binding microarrays: a tool to detect cis-acting elements near promoter regions in rice”:
# Some of the results follow.
# Target: T1, OsWOX13 (Oryza sativa, UniProt Q5QMM3 1-267)
# T1 sequence: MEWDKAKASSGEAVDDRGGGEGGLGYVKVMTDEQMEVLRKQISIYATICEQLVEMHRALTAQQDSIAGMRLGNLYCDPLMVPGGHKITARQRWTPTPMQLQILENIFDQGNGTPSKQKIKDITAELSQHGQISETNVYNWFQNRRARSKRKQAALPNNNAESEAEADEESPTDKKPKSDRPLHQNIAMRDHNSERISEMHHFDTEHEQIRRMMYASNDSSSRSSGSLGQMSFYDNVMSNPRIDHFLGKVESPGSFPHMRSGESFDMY
# Test: protein-binding microarray (RPBM); PBS, 2% BSA, 51.3 ng/ul salmon testes DNA, 50 uM zinc acetate, 200 nM TF, 25 C, 1 h; high values mean tight binding
# Settings: protein: recombinant; tags: N-terminal polyhistidine and DsRed monomer fusion (pET32a); label: CyDye5-dUTP incorporated in the synthesized complementary strand; 3' TTTTT single-stranded linker to array surface; dsDNA, one strand shown
# In short: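 Binding signal is reported as fluorescence intensity per feature (arbitrary units) from an Axon 4000B scanner. Incubation used 200 nM of each Ni–NTA-purified, N-terminally polyhistidine- and DsRed-fused transcription factor from E. coli BL21-CodonPlus on a double-stranded custom Agilent array for 1 h at 25 °C, with 50 µM zinc acetate in the buffer, followed by washing.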
row,Sequence,binding signal
1,ACCAAACTTACAATTTTGACACGATCAACCCAAACTATGACGGAGTCACCTAGTGCAG,3670 fluorescence intensity (a.u.)
2,CCAAAATGATAAGATATCTAATCTAATCACACCTCAAAGTCGGAGTCACCTAGTGCAG,13200 fluorescence intensity (a.u.)
3,TAAAATTTAAAATTATGTTGTCATTTTAATATATTTGAATCGGAGTCACCTAGTGCAG,5930 fluorescence intensity (a.u.)
4,CAACTGATTCTAATTTTACTACGGCCCAGTATGTACCAATCGGAGTCACCTAGTGCAG,8360 fluorescence intensity (a.u.)
5,GTAGCTAATTAAGTAAGGGATAGCTTTAATAGCTCGATTTCGGAGTCACCTAGTGCAG,8270 fluorescence intensity (a.u.)
6,TGTTTGATAATTGACTTTTCCATTCCAAATTACAGACACTCGGAGTCACCTAGTGCAG,28000 fluorescence intensity (a.u.)
7,TGGCGTAATTAGCCTCAAAAGATTCGTCTCGTAATTTACACGGAGTCACCTAGTGCAG,8550 fluorescence intensity (a.u.)
8,TTGATAGCTTATCAGTAATGGCACGCATCGTACGTTGCAGCGGAGTCACCTAGTGCAG,3970 fluorescence intensity (a.u.)
9,AATCACATATCTAGATTTACAAATTTGTAAAGTTAGAAATCGGAGTCACCTAGTGCAG,6790 fluorescence intensity (a.u.)
10,TATAATTACAGGATTTCTTTTGTACTCCCTCCATTCTAAACGGAGTCACCTAGTGCAG,5820 fluorescence intensity (a.u.)
11,CGATGACTGGAATATGCCTCACACGGCTGCAAAACTGCAGCGGAGTCACCTAGTGCAG,14200 fluorescence intensity (a.u.)
12,TAAATTTGATTTAGTTAATACTATACTTATTTAAGGTACACGGAGTCACCTAGTGCAG,25400 fluorescence intensity (a.u.)
13,CCGCACATGTCAAATTCTAATTGGGTAAGGATGTCACACCCGGAGTCACCTAGTGCAG,4890 fluorescence intensity (a.u.)
14,AATCAATTAATGCTGTGAAATGAATTAATGCATAGTGGCACGGAGTCACCTAGTGCAG,41600 fluorescence intensity (a.u.)
15,GAGGGAGTAATAATTAGATTTAGATATGTACTAATACACTCGGAGTCACCTAGTGCAG,7470 fluorescence intensity (a.u.)
16,GATAACTATGATTTCTCAACAATTGGATTATTCTAAAGCGCGGAGTCACCTAGTGCAG,10200 fluorescence intensity (a.u.)
17,AAGACGTTTCTCAATTATTGTAGTTAAGTGAGTTTAGTATCGGAGTCACCTAGTGCAG,4920 fluorescence intensity (a.u.)
18,CATGGTGATAGGAAAAGTTACATGTCTCCACAATATGTAACGGAGTCACCTAGTGCAG,4380 fluorescence intensity (a.u.)
19,GCGGGCGGAGGAGCTCGGGCGTGGGCGGGGAGGGCGGATCCGGAGTCACCTAGTGCAG,3250 fluorescence intensity (a.u.)
20,ATGTTGATATATAAAGATTTTACTAATCATACTTTTAAAACGGAGTCACCTAGTGCAG,6020 fluorescence intensity (a.u.)
21,TTCGAAAATTACCTGTAACCTTCCATCCATCACACACACACGGAGTCACCTAGTGCAG,3500 fluorescence intensity (a.u.)

row,Sequence,binding signal
1,TTTGATAGGACGAATCTGAACTTCTGAAGCCATCATACTTCGGAGTCACCTAGTGCAG,13000 fluorescence intensity (a.u.)
2,GATGATTTGCTTACTGAATGTCTCGGGTATTTAGTTCCAACGGAGTCACCTAGTGCAG,38500 fluorescence intensity (a.u.)
3,ATACTGCTGTAACATTTGATTGGATTGAAAGGATATCGCTCGGAGTCACCTAGTGCAG,20500 fluorescence intensity (a.u.)
4,AATATAATCAAATTTAGCCAATAAAAGGTTTAGATTGTCACGGAGTCACCTAGTGCAG,7290 fluorescence intensity (a.u.)
5,TGTGATTGGTTGGAGCAGCTGCGCGCGGATCGCATTCGCACGGAGTCACCTAGTGCAG,22700 fluorescence intensity (a.u.)
6,AATGTTGCAATCACTGACTGAAAATCACCCAGTTCTCGTACGGAGTCACCTAGTGCAG,16600 fluorescence intensity (a.u.)
7,CTCTCTCTCTGATTAGTTAATTGAATACATTGTAAGGGCCCGGAGTCACCTAGTGCAG,41200 fluorescence intensity (a.u.)
8,TCTACTTTTCTAATTCCCAATCTATTATTTCTAATTATATCGGAGTCACCTAGTGCAG,3800 fluorescence intensity (a.u.)
9,AAGTTAACTAATTATACAGATTGCGTGTAAATTGTGAGACCGGAGTCACCTAGTGCAG,24400 fluorescence intensity (a.u.)
10,TGTCGAATGTGATTTAACAATTCCGCTAATATTAACTGTTCGGAGTCACCTAGTGCAG,6020 fluorescence intensity (a.u.)
11,TGTGAACCAAATTATAATTCACTCATCTGGACAGAACTCTCGGAGTCACCTAGTGCAG,5260 fluorescence intensity (a.u.)
12,TCGTTCAGATTGGATGCAACGGTGGAGATTAGTATTTCCACGGAGTCACCTAGTGCAG,6160 fluorescence intensity (a.u.)
13,CTGTCTGCTTTCTGATTGATTGAGATGAGATCTACTAGGACGGAGTCACCTAGTGCAG,28300 fluorescence intensity (a.u.)
14,TGATAAATCATAGCGTTAAAATTGAAGTATCCTAGCTGTTCGGAGTCACCTAGTGCAG,8770 fluorescence intensity (a.u.)
15,CCAATTATACTTGCCAATCTGCCGTCACCTCACCTGTTCTCGGAGTCACCTAGTGCAG,5540 fluorescence intensity (a.u.)
16,CGTTTAATTGTGTATATATATAGCCACATTAAAGTACACACGGAGTCACCTAGTGCAG,11100 fluorescence intensity (a.u.)
17,AATGATAAATTTAAAGTTTATATGTTAAATTGTTATTGTTCGGAGTCACCTAGTGCAG,18300 fluorescence intensity (a.u.)
18,AGGGATTTGAAGCAATTTAAAATTTGACAACTAAAGTGACCGGAGTCACCTAGTGCAG,6610 fluorescence intensity (a.u.)
19,CCACGCTAAAATTGGAAGTTTGACTAAAATTAGAAGTTTACGGAGTCACCTAGTGCAG,3220 fluorescence intensity (a.u.)
20,TTTAATTTTGCGTACGATCCAATCTCCCTCTAAACGGCCACGGAGTCACCTAGTGCAG,8570 fluorescence intensity (a.u.)
21,AGTGAATTGAGGGATTTATAGTGAACTTACTCCTTATCTTCGGAGTCACCTAGTGCAG,3420 fluorescence intensity (a.u.)

row,Sequence,binding signal
1,GACATAGATTACTTTTCATACAAGTCATCTATGATAATCCCGGAGTCACCTAGTGCAG,4280 fluorescence intensity (a.u.)
2,TTCGGCCGATGATTTAACACATTATCAGCGTAGATGTACGCGGAGTCACCTAGTGCAG,3790 fluorescence intensity (a.u.)
3,TATGATCAATGATTGAATCGATCGAGAAGGTTAGTCGTCGCGGAGTCACCTAGTGCAG,48600 fluorescence intensity (a.u.)
4,CTAAAATAATTTTGCTATGGAATTGTATAGGTCGTATCAACGGAGTCACCTAGTGCAG,4540 fluorescence intensity (a.u.)
5,CAAACTTTGCTGACTGAATTGGCTGTTCAATCTACTAATACGGAGTCACCTAGTGCAG,3430 fluorescence intensity (a.u.)
6,GAGTAATTGGGAAATCTGTGATAAGGTATGAATCTTCCCTCGGAGTCACCTAGTGCAG,41000 fluorescence intensity (a.u.)
7,AGATACTGGAACTACTCAATCATTGGCAAAAGAAAACGAACGGAGTCACCTAGTGCAG,5970 fluorescence intensity (a.u.)
8,TGTAACTTTCATCCATCTAATTAAATTAAACGGTTATAAACGGAGTCACCTAGTGCAG,10600 fluorescence intensity (a.u.)
9,GAAGATTGAGAAGAAGAAGATGCTAGAGCTAGTCGATCTCCGGAGTCACCTAGTGCAG,4350 fluorescence intensity (a.u.)
10,GTATAATCAACTTTGATCAGTGATTACTACTTTCGAAGTGCGGAGTCACCTAGTGCAG,20900 fluorescence intensity (a.u.)
11,CATATATTGGTGTTGTGTGTGGGTGGGTGGGGCGGTGCTTCGGAGTCACCTAGTGCAG,7160 fluorescence intensity (a.u.)
12,GAAATTAGAGATGATGTGACTGAAAAGTTATGTGTGTATGCGGAGTCACCTAGTGCAG,14100 fluorescence intensity (a.u.)
13,TCATAGATTTGGAGATTGTACTTGTATTTATGGGAAGGTCCGGAGTCACCTAGTGCAG,5870 fluorescence intensity (a.u.)
14,ACACCAAAATTAAATTTTAAATTTTAGCTTATAAACATATCGGAGTCACCTAGTGCAG,7300 fluorescence intensity (a.u.)
15,AGTAGTGATTAATCCATGATTAGCGTATGTGATGCTAAAGCGGAGTCACCTAGTGCAG,43300 fluorescence intensity (a.u.)
16,GTTCCAAATTGAAGTTACAAGCCTATAGGCTCATCATAGGCGGAGTCACCTAGTGCAG,6900 fluorescence intensity (a.u.)
17,AGAGGGGACTGGGGAGGGGAGGGGCGGCGCTCGCTGGCTTCGGAGTCACCTAGTGCAG,4910 fluorescence intensity (a.u.)
18,TCCAGGGTTTGCTACTAGATTGATGGGTGTCAAAGTCCTTCGGAGTCACCTAGTGCAG,6580 fluorescence intensity (a.u.)
19,TTACATTAGCAATTGATTGCTCTTATTTGACCATGATGTTCGGAGTCACCTAGTGCAG,31500 fluorescence intensity (a.u.)
20,CCTTAAATTTTCCTAAATCCTTACCTACCGTCATTCTCTCCGGAGTCACCTAGTGCAG,4710 fluorescence intensity (a.u.)
21,ATAAATTTCAGATCAAATTTGATGAATTTCGTATATCTTCCGGAGTCACCTAGTGCAG,11600 fluorescence intensity (a.u.)

row,Sequence,binding signal
1,CTCTCAATCATTCTAATCGATAGCACTCGCCGCGGCGGCGCGGAGTCACCTAGTGCAG,11400 fluorescence intensity (a.u.)
2,TTGAAAATTTAAATTTTGACCGATAAACATAAGCATAAGCCGGAGTCACCTAGTGCAG,18100 fluorescence intensity (a.u.)
3,TGAAAATAATTTCGAATCATTCGGCATAGAGTTGGGGTGTCGGAGTCACCTAGTGCAG,3830 fluorescence intensity (a.u.)
4,AAAACAAATTACATAATCCGCATGTAAACTGCGAGATGAACGGAGTCACCTAGTGCAG,11300 fluorescence intensity (a.u.)
5,ACAAAATCATATTATTAGAATATATTATATTTTCGTACTGCGGAGTCACCTAGTGCAG,3540 fluorescence intensity (a.u.)
6,AAGATATATTTATAATAAATGTAATTGCCAATGTACGTATCGGAGTCACCTAGTGCAG,4580 fluorescence intensity (a.u.)
7,CCCGATGATTGGACGACCATATCAATGAGTCGTATGAAGGCGGAGTCACCTAGTGCAG,52000 fluorescence intensity (a.u.)
8,CCTAATCTAATCTCCTGGAATAATGGTTTCTACTCGCGCACGGAGTCACCTAGTGCAG,3730 fluorescence intensity (a.u.)
9,GGAGAACAAATTGAAATTGCTCCACCCTTTTGGCTAATGTCGGAGTCACCTAGTGCAG,14600 fluorescence intensity (a.u.)
10,TATGATTTGATTGATTTCTGGATCAGATTGCGTCCCTTGCCGGAGTCACCTAGTGCAG,38400 fluorescence intensity (a.u.)
11,TTCACCAATCTATCTATCTACCCTATAATTCACAACACATCGGAGTCACCTAGTGCAG,7320 fluorescence intensity (a.u.)
12,GCATATCCAATTATCCATTGCCATTATAGCGAAAGCAGTACGGAGTCACCTAGTGCAG,4420 fluorescence intensity (a.u.)
13,AGTGATGGAATTTAAAAGTCACCCCTACAAAATACAGAAACGGAGTCACCTAGTGCAG,3330 fluorescence intensity (a.u.)
14,TAGGGAATATTACGCCATTAATTGGATTGTTTTGATTCGTCGGAGTCACCTAGTGCAG,8130 fluorescence intensity (a.u.)
15,AATTAAATTTAATAGATTCGTCTCGCAGTTTACATGCGGACGGAGTCACCTAGTGCAG,31700 fluorescence intensity (a.u.)
16,AGAGTGTAAATTACACTAGGATGACACATACTCCCTCCGTCGGAGTCACCTAGTGCAG,4940 fluorescence intensity (a.u.)
17,AGTGGATTGAGGGTGATGGTGGCGGCGTATTGGGGAGGCACGGAGTCACCTAGTGCAG,13500 fluorescence intensity (a.u.)
18,CAATCAATTTCATGATTATTTGATTTTGTACTTCAAGCAACGGAGTCACCTAGTGCAG,26500 fluorescence intensity (a.u.)
19,GTTAAAACTATATGATTGTGTGAGTCAGCGCACTTTGCACCGGAGTCACCTAGTGCAG,3730 fluorescence intensity (a.u.)
20,ATAATTAATTGCGAAAATCAGAGGCTGGCAGTATATATTCCGGAGTCACCTAGTGCAG,24100 fluorescence intensity (a.u.)
21,TAGCAACTAATTTGTGTTTGATAGAATCTCTGGCAGCTTACGGAGTCACCTAGTGCAG,16000 fluorescence intensity (a.u.)
